Results published in PubChem BioAssay (Tox21).
Inconclusive means that the source gave no clear call. Such entries were picked first, then a sample of the others. For part of these data: No potency is given beside an inconclusive call; the fits are too rough. The source made the active and inactive calls. Unless noted, calls follow the shape of the dose curve; as a rule, active = well fitted curve in the direction sought with a large enough effect in the repeat runs; inconclusive = weak or mixed curves; inactive = no such curve, though single readings can be large; an effect the other way counts as inactive or inconclusive.

Legend:
[1] = qHTS assay to identify small molecule antagonists of the estrogen related receptor (ERR) signaling pathway (AID 1224819; also: nearly all actives have a fitted effect of over 50% in size; also: potency is read from the fitted curve at half-maximal effect;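 as to activity change, negative = inhibition: luminescence from an ERR-driven luciferase reporter measured with One-Glo reagent; % is scaled to controls: 0 for no effect and ±100 for the full control effect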)
Method in brief: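 Seed ERR cells 2,000/well; rest 6 h at 37 C/5% CO2; pin compounds in DMSO; incubate 18 h at 37 C; add One-Glo; wait 30 min at room temperature; measure luminescence.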

[2] = qHTS assay to identify small molecule antagonists of the estrogen related receptor signaling pathway with the pleiotropic PPARgamma coactivator (PGC) cell viability counter screen (AID 1224822; also: potency is read from the fitted curve at half-maximal effect;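 also: viability read after 17.5 h compound exposure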)
Method in brief: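 17.5 h compound treatment of PGC/ERR cells at 37 C; readout CellTiter-Fluor fluorescence; run alongside the PGC/ERR antagonist screen to flag cytotoxic compounds.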

[3] = qHTS assay to identify small molecule agonists of the estrogen related receptor signaling pathway with the pleiotropic PPARgamma coactivator (PGC) (AID 1224823); also: potency is read from the fitted curve at half-maximal effect
Method in brief: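 Luminescence from One-Glo reagent (30 min, room temperature) was read after 18 h compound treatment at 37 C of PGC/ERR cells plated 6 h beforehand; compounds delivered in DMSO by pin tool.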

[4] = qHTS assay for small molecule disruptors of the mitochondrial membrane potential (AID 720635); conditions: HepG2 mitochondrial membrane potential, Mito-MPS dye ratio; ratio activity, negative = MMP loss: at 83.2 µM (top of the series) unless noted; also: % is scaled to controls: 0 for no effect and ±100 for the full control effect
Method in brief: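 Mitochondrial membrane potential tracked with Mito-MPS dye, red aggregates (ex 540/em 590 nm) against green monomers (ex 490/em 535 nm). Compound treatment 1 hr at 37C, dye 30 min in HepG2.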

[5] = qHTS assay for identifying genotoxic compounds that show differential cytotoxicity against isogenic chicken DT40 cell lines with known DNA damage response pathways - Rev3 mutant cell line (AID 743014); conditions: chicken DT40 Rev3-/- viability, CellTiter-Glo, 40 h; activity, negative = cytotoxicity: at 68.4 µM (top of the series) unless noted; also: nearly all actives have a fitted effect of over 55% in size; also: potency is read from the fitted curve at half-maximal effect
[6] = target: Androgen receptor (Homo sapiens) (UniProt P10275); experiment: qHTS assay to identify small molecule antagonists of the androgen receptor (AR) signaling pathway using the MDA cell line (AID 743042; also: % is scaled to controls: 0 for no effect and ±100 for the full control effect; nearly all actives have a fitted effect of over 55% in size)
Method in brief: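 Antagonist mode: compounds plus R1881 agonist added to MDA-kb2 AR-luc cells, incubated 16 h at 37C. Luciferase reporter luminescence quantified, with multiplexed CellTiter-Fluor readout for cell viability.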

[7] = qHTS assay to identify small molecule antagonists of the estrogen receptor alpha (ER-alpha) signaling pathway - cell viability counter screen (AID 743074; calls by dose curve;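 also: HEK293 cells carrying ER-alpha-UAS-bla reporter stimulated with 17beta-estradiol; nearly all actives have a fitted effect of over 45% in size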; also: potency is read from the fitted curve at half-maximal effect; as to activity, negative = cytotoxicity: % is scaled to controls: 0 for no effect and ±100 for the full control effect)
Aromatase (Homo sapiens) = Aromatase (Homo sapiens) (UniProt P11511); experiment: qHTS assay to identify aromatase inhibitors (AID 743083); also: % is scaled to controls: 0 for no effect and ±100 for the full control effect; nearly all actives have a fitted effect of over 55% in size
[8] = target: Aryl hydrocarbon receptor (Homo sapiens) (UniProt P35869); experiment: qHTS assay to identify small molecule that activate the aryl hydrocarbon receptor (AhR) signaling pathway (AID 743085); also: potency is read from the fitted curve at half-maximal effect; nearly all actives have a fitted effect of over 15% in size
Method in brief: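 Steps: seed HepG2-AhR-luc cells; allow 5 h at 37C; pin-transfer test compound or vehicle; incubate 24 h at 37C; add viability dye (30 min, 37C) and read fluorescence; add luciferase substrate (30 min, RT) and read luminescence.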

[9] = qHTS assay to identify small molecule agonists of the estrogen related receptor (ERR) signaling pathway (AID 1224820); also: potency is read from the fitted curve at half-maximal effect
Method in brief: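 After 6 h plating (2,000 cells/well) and 18 h compound treatment at 37 C, ERR cells were lysed with One-Glo and luminescence read after 30 min at room temperature.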

[10] = target: Glucocorticoid receptor (Homo sapiens) (UniProt P04150); experiment: qHTS assay to identify small molecule antagonists of the glucocorticoid receptor (GR) signaling pathway (AID 720692; active = well fitted inhibition curve with a large enough effect in the signal ratio in the repeat runs, not every such curve was filed as active; inconclusive = weak or mixed curves, or effect the other way; inactive = no such curve, though single readings can be large or run the other way; the % refers to the signal ratio; also: potency is read from the fitted curve at half-maximal effect); conditions: GR-bla HeLa, beta-lactamase FRET ratio, dexamethasone-stimulated, 18 h; activity change, negative = inhibition: at 58.5 µM (top of the series) unless noted
Method in brief: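 In a 1536-well cell format, compounds were added 4 h after seeding GR-bla HeLa cells, together with dexamethasone at 5 nM final; reporter activity was measured by FRET-substrate fluorescence following 18 h at 37 C.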

[11] = qHTS assay to identify small molecule phospholipidosis (PLD) inducers (AID 1259344; active = well fitted curve in the direction sought with a large enough effect; inconclusive = small, poorly fitted or top-dose-only effect, or another doubt; inactive = no such curve, though single readings can be large; an effect the other way counts as inactive or inconclusive; also: % is scaled to controls: 0 for no effect and ±100 for the full control effect); conditions: HepG2 phospholipidosis, LipidTOX Red imaging, 24 h; PLD induction: at 38.3 µM (top of the series) unless noted
Method in brief: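 Phospholipid accumulation was scored by imaging: fixed, Hoechst-counterstained HepG2 cells stained with LipidTOX Red after 24 h compound exposure at 37 C. Read-outs were pit count and pit intensity per well or per cell, with amiodarone and DMSO controls.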
Tags tell the direction and shape of the fitted curve or compound fluorescence and quenching.

Chain of UniProt P11511 (P11511 whole entry, looked up): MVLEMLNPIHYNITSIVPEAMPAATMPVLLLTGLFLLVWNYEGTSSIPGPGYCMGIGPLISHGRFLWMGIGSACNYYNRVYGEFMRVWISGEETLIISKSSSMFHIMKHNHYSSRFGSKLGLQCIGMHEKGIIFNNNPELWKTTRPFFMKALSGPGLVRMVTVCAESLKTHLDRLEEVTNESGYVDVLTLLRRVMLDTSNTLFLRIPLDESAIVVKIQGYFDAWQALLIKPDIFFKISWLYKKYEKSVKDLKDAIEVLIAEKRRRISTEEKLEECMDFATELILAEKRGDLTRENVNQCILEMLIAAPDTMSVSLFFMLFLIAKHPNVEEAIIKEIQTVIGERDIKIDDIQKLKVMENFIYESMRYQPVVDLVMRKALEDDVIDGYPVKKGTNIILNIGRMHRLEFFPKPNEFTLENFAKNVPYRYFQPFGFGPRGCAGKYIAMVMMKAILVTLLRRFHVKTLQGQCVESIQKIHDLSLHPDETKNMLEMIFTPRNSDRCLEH
Chain of UniProt P35869 (P35869 whole entry, looked up): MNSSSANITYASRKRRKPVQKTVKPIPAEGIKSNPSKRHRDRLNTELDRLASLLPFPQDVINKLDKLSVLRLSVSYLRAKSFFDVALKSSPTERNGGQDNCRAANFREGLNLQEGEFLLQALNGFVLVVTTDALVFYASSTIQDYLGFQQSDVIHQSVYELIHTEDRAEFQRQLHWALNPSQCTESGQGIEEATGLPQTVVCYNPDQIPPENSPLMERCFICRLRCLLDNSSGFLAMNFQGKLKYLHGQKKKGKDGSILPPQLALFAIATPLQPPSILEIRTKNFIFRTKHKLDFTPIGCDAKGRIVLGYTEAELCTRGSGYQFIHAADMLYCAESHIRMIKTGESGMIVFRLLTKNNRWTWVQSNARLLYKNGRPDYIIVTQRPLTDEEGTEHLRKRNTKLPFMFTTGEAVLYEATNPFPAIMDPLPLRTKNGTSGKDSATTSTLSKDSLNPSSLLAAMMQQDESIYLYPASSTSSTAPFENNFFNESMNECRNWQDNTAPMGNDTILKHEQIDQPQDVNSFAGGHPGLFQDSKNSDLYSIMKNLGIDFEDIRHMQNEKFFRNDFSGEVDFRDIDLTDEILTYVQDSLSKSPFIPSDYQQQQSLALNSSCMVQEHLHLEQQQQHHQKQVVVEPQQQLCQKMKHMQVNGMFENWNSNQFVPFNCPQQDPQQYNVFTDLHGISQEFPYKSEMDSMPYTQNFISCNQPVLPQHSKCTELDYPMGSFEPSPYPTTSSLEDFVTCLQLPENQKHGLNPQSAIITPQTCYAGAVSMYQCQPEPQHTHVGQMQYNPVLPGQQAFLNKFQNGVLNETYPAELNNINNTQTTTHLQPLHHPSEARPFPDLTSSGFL
Chain of UniProt P10275 (P10275 whole entry, looked up): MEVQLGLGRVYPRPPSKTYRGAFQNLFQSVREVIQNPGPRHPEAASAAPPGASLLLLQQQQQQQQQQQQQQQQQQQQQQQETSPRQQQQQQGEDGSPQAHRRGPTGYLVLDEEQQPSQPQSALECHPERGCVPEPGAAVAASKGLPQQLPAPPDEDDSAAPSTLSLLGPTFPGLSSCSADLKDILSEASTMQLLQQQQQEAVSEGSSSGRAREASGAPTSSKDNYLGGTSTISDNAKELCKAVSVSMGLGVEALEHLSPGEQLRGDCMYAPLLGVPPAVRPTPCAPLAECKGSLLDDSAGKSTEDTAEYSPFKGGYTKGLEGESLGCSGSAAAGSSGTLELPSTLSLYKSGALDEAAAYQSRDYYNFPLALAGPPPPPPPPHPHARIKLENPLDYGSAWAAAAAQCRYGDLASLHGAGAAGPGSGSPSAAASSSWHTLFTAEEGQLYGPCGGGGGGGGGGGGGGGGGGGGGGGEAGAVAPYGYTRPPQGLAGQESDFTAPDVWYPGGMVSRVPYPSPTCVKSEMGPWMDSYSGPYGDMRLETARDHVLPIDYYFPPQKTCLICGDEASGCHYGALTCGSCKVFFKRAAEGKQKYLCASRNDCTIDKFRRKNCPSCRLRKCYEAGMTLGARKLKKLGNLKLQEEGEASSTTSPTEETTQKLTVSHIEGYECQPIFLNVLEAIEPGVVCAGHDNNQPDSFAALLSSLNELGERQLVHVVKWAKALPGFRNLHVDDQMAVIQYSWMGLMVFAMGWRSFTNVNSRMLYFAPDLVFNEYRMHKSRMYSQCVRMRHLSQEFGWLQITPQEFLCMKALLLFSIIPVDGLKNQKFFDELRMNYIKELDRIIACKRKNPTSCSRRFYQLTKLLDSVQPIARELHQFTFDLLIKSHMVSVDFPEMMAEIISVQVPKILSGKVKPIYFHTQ
Chain of UniProt P04150 (P04150 whole entry, looked up): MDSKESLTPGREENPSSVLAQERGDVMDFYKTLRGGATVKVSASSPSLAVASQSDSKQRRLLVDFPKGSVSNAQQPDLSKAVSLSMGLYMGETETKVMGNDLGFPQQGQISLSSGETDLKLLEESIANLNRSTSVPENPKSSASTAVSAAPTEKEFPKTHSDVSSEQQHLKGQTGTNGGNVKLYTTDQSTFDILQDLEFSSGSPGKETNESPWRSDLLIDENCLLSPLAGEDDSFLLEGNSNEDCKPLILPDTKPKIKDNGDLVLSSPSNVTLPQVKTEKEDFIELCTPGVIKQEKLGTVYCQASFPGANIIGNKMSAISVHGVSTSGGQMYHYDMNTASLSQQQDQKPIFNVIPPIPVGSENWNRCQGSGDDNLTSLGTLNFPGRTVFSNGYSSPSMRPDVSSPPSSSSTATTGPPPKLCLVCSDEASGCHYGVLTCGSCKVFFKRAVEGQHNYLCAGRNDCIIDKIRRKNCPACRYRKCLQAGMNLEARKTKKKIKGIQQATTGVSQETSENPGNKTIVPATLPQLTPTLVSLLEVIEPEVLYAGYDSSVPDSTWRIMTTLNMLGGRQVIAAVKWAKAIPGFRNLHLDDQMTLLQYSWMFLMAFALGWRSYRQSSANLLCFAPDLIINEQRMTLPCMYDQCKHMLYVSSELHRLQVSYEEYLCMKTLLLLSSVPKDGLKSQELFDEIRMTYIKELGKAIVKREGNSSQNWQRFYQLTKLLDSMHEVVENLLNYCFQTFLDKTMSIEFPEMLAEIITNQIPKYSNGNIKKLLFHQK

Compound: OC1(c2ccc(Cl)cc2)CCN(Cc2c[nH]c3ccccc23)CC1
- Potency [1]: inconclusive [inhibitor]
- Potency [2]: inconclusive [cytotoxic, partial curve, poor fit]
- Potency [3]: inconclusive [activator, single point]

Compound: CC(/C=C/c1cccc(Oc2ccc(F)cc2)c1)N(O)C(N)=O (stereo not given)
- Potency [1]: inconclusive [inhibitor]
- Potency [2]: inactive

Compound: OCc1ccc(-c2nn(Cc3ccccc3)c3ccccc23)o1
- Potency [1]: inconclusive [inhibitor]
- Potency [3]: inactive

Compound: N#C/C(=C\c1ccc(-c2cc(Cl)ccc2Cl)o1)C(=O)Nc1cccc2ncccc12
- Potency [1]: inconclusive [inhibitor]
- Potency [2]: active: 14.4 µM
- Potency [3]: inconclusive [activator, partial curve, poor fit]

Compound: N[C@@H](Cc1cnc[nH]1)C(=O)O
- ratio activity, negative = MMP loss [4]: inconclusive: 4.67%
- Potency [5]: inconclusive [rising, partial curve, poor fit]
- Potency [6]: inactive
- Potency [7]: inactive
- Potency (Aromatase (Homo sapiens)): inactive
- Potency [8]: inconclusive [activator, full curve, poor fit]
- Potency [1]: inactive

Compound: CCCCS(=N)(=O)CC[C@H](N)C(=O)O (stereo not given in full)
- Potency [9]: inconclusive [activator, partial curve]

Compound: Nc1nc(OCC2CCCCC2)c2[nH]cnc2n1
- Potency [1]: inconclusive [inhibitor, partial curve, poor fit]
- Potency [2]: inactive

Compound: O=C1CCC(c2ccc(-n3ccnc3)cc2)=NN1
- Potency [4]: inactive
- Potency [10]: inconclusive [inhibitor, partial curve, poor fit]
- Potency [5]: inactive
- Potency [7]: inconclusive [rising, full curve, poor fit]
- Potency [1]: inactive
- Potency [2]: inactive
- Potency [11]: inactive

Compound: Nc1ncnc2c1c(-c1ccc(Oc3ccccc3)cc1)cn2C1CCCC1
- Potency [1]: active: 11.9 µM
- Potency [2]: inconclusive [cytotoxic]

Compound: COc1cc(N)c(Cl)cc1C(=O)OCCN1CCCCC1
- Potency [9]: inconclusive [activator, partial curve]
